Test results taken from the supplement of paper PMC12217912.
This is one part of the list. Sequences were assembled here from the parent chain. Values near 0.05 are background.

B1: TEV protease; numbered along this chain (parent)
chain: MGESLFKGPRDYNPISSSICHLTNESDGHTTSLYGIGFGPFIITNKHLFRRNNGTLVVQSLHGVFKVKDTTTLQQHLVDGRDMIIIRMPKDFPPFPQKLKFREPQREERICLVTTNFQTKSMSSMVSDTSCTFPSGDGIFWKHWIQTKDGQCGSPLVSTRDGFIVGIHSASNFTNTNNYFTSVPKNFMELLTNQEAQQWVSGWRLNADSVLWGGHKVFMVKPEEPFQPVKEATQL

Variants of: B1
Experiment: raw area under fraction-flipped curve 0-4 h after induction (AUC4h, not background-subtracted), DNA-recorder readout of cleavage of the substrate (dimensionless); higher = more cleavage of the substrate by the protease variant
Details: temperature: 34 °C; time window: 0-4 h after rhamnose induction
Protocol: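 In vivo DNA recorder in E. coli TOP10(DE3) ΔrhaA at 34 °C. Each TEVp single-site mutant (parent TEVp 0) is paired with a single-site variant of the 7-mer TEVs (canonical ENLYFQ|S). The substrate sits between flexible linkers in a Bxb1-sfGFP-TEVs-SsrA fusion, so cleavage stabilises Bxb1 and speeds flipping of a recombination array, read by NGS. The value is the raw area under the fraction-flipped curve over 0-4 h after rhamnose induction (AUC4h), with ≥20 reads per time point. It is not background-subtracted; inactive controls average about 0.047.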
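Note: Bxb1 expression induced with 0.2% (w/v) L-rhamnose at OD600 near 0.5, cultures sampled hourly, flipped fraction per protease–substrate barcode pair counted by paired-end Illumina sequencing.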

Row | Variant | area with substrate GNLYFQS | area with substrate MNLYFQS | area with substrate SNLYFQS | area with substrate TNLYFQS | area with substrate WNLYFQS | area with substrate HNLYFQS | area with substrate INLYFQS | area with substrate KNLYFQS | area with substrate NNLYFQS | area with substrate RNLYFQS
1 | MGESLFKGPRDYNPISSSICHLTNESDGHTTSLYGIGFGPFIITNKHLFRRNNGTLVVQSLHGVFKVKDTTTLQQHLVDGRDMIIIRMPKDFPPFPQKLKFREPQREERICLVTTNFQTKSMSSMVSDTSCTFPSGDGIFWKHWIQTKDGQCGSPLVSTRDGFIVGIHSASNFTNTNNYFTSVPKNFMELLTNQEAQQWVSGSRLNADSVLWGGHKVFMVKPEEPFQPVKEATQL [W203S] | 0.068 | 0.0595 | 0.0467 | 0.0431 | 0.0515 |  |  |  |  | 
2 | MGESLTKGPRDYNPISSSICHLTNESDGHTTSLYGIGFGPFIITNKHLFRRNNGTLVVQSLHGVFKVKDTTTLQQHLVDGRDMIIIRMPKDFPPFPQKLKFREPQREERICLVTTNFQTKSMSSMVSDTSCTFPSGDGIFWKHWIQTKDGQCGSPLVSTRDGFIVGIHSASNFTNTNNYFTSVPKNFMELLTNQEAQQWVSGWRLNADSVLWGGHKVFMVKPEEPFQPVKEATQL [F6T] |  |  |  |  | 0.0763 | 0.0651 | 0.0564 | 0.078 | 0.0717 | 0.0724
3 | MGESLNKGPRDYNPISSSICHLTNESDGHTTSLYGIGFGPFIITNKHLFRRNNGTLVVQSLHGVFKVKDTTTLQQHLVDGRDMIIIRMPKDFPPFPQKLKFREPQREERICLVTTNFQTKSMSSMVSDTSCTFPSGDGIFWKHWIQTKDGQCGSPLVSTRDGFIVGIHSASNFTNTNNYFTSVPKNFMELLTNQEAQQWVSGWRLNADSVLWGGHKVFMVKPEEPFQPVKEATQL [F6N] |  | 0.0735 |  |  | 0.0686 | 0.0604 | 0.0653 |  | 0.0528 | 
4 | MGESLFKGPRDYNPISSSICHLTNESDGHTTSLYGIGFGPFIITNKHLFRRNNGTLVVQSLHGVFKVKDTTTLQQHLVDGRDMIIIRMPKDFPPFPQKLKFREPQREERICLVTTNFQTKSMSSMVSDTSCTFPSGDGIFWKHWIQTKDGQCGSPLVSTRDGFIVGIHSASNFTNTNNYFTSVPKNFMELLTNQEAQQWVSWWRLNADSVLWGGHKVFMVKPEEPFQPVKEATQL [G202W] | 0.06 | 0.0304 | 0.0552 |  | 0.0583 |  |  | 0.0622 |  | 
5 | MGESLFKGPRDYNPISSSICHLTNESDGHTTSLYGIGFGPFIITNKHLFRRNNGTLVVQSLHGVFKVKDTTTLQQHLVDGRDMIIIRMPKDFPPFPQKLKFREPQREERICLVTTNFQTKSMSSMVSDTSCTFPSGDGIFWKHWIQTKDGQCGSPLVSTRDGFIVGIHSASNFTNTNNYFTSVPKNFMELLTNQEAQQWVSGWRLNADSVLWGGHKVFMVKLEEPFQPVKEATQL [P222L] | 0.0629 | 0.0466 |  | 0.0513 | 0.0621 | 0.0485 |  | 0.0764 | 0.0533 | 
6 | MGESLFKGPRDYNPISSSICHLTNESDGHTTSLYGIGFGPFIITNKHLFRRNNGTLVVQSLHGVFKVKDTTTLQQHLVDGRDMIIIRMPKDFPPFPQKLKFREPQREERICLVTTNFQTKSMSSMVSDTSCTFPSGDGIFWKHWIQTKDGQCGSPLVSTRDGFIVGIHSASNFTNTNNYFTSVPKNFMELLTNQEAQQWVSGWRLNADSVLWGGHKVFMVKTEEPFQPVKEATQL [P222T] | 0.0709 | 0.0866 |  | 0.0722 | 0.0766 | 0.0448 |  | 0.0461 |  | 
7 | MGESLFKGPRDYNPISSSICHLTNESDGHTTSLYGIGFGPFIITNKHLFRRNNGTLVVQSLHGVFKVKDTTTLQQHLVDGRDMIIIRMPKDFPPFPQKLKFREPQREERICLVTTNFQTKSMSSMVSDTSCTFPSGDGIFWKHWIQTKDGQCGSPLVSTRDGFIVGIHSASNFTNTNNYFTSVPKNFMELLTNQEAQQWVNGWRLNADSVLWGGHKVFMVKPEEPFQPVKEATQL [S201N] | 0.0699 |  |  | 0.0676 | 0.0694 | 0.0587 | 0.0521 | 0.0593 |  | 
8 | MGESLFKGPRDYNPISSSICHLTNESDGHTTSLYGIGFGPFIITNKHLFRRNNGTLVVQSLHGVFKVKDTTTLQQHLVDGRDMIIIRMPKDFPPFPQKLKFREPQREERICLVTTNFQTKSMSSMVSDTSCTFPSGDGIFWKHWIQTKDGQCGSPLVSTRDGFIVGIHSASNFTNTNNYFTSVPKNFMELLTNQEAQQWVCGWRLNADSVLWGGHKVFMVKPEEPFQPVKEATQL [S201C] | 0.0634 |  | 0.0923 | 0.0595 | 0.0706 |  | 0.0584 | 0.0486 | 0.0776 | 
9 | MGESLFKGPRDYNPISSSICHLTNESDGHTTSLYGIGFGPFIITNKHLFRRNNGTLVVQSLHGVFKVKDTTTLQQHLVDGRDMIIIRMPKDFPPFPQKLKFREPQREERICLVTTNFQTKSMSSMVSDTSCTFPSGDGIFWKHWIQTKDGQCGSPLVSTRDGFIVGIHSASNFTNTNNYFTSVPKNFMELLTNQEAQQWVSGWRLNADSVLWGEHKVFMVKPEEPFQPVKEATQL [G214E] | 0.0499 | 0.0539 |  |  |  | 0.0629 | 0.0612 |  |  | 
10 | MAESLFKGPRDYNPISSSICHLTNESDGHTTSLYGIGFGPFIITNKHLFRRNNGTLVVQSLHGVFKVKDTTTLQQHLVDGRDMIIIRMPKDFPPFPQKLKFREPQREERICLVTTNFQTKSMSSMVSDTSCTFPSGDGIFWKHWIQTKDGQCGSPLVSTRDGFIVGIHSASNFTNTNNYFTSVPKNFMELLTNQEAQQWVSGWRLNADSVLWGGHKVFMVKPEEPFQPVKEATQL [G2A] |  |  |  | 0.0645 | 0.0589 | 0.105 | 0.0614 | 0.0566 |  | 

Same assay, conditions: temperature: 34 °C; time window: 0-4 h after rhamnose induction

Row | Variant | area with substrate LNLYFQS | area with substrate QNLYFQS | area with substrate YNLYFQS | area with substrate PNLYFQS | area with substrate VNLYFQS
11 | MGESLNKGPRDYNPISSSICHLTNESDGHTTSLYGIGFGPFIITNKHLFRRNNGTLVVQSLHGVFKVKDTTTLQQHLVDGRDMIIIRMPKDFPPFPQKLKFREPQREERICLVTTNFQTKSMSSMVSDTSCTFPSGDGIFWKHWIQTKDGQCGSPLVSTRDGFIVGIHSASNFTNTNNYFTSVPKNFMELLTNQEAQQWVSGWRLNADSVLWGGHKVFMVKPEEPFQPVKEATQL [F6N] | 0.0537 |  |  |  | 
12 | MGESLFKGPRDYNPISSSICHLTNESDGHTTSLYGIGFGPFIITNKHLFRRNNGTLVVQSLHGVFKVKDTTTLQQHLVDGRDMIIIRMPKDFPPFPQKLKFREPQREERICLVTTNFQTKSMSSMVSDTSCTFPSGDGIFWKHWIQTKDGQCGSPLVSTRDGFIVGIHSASNFTNTNNYFTSVPKNFMELLTNQEAQQWVSWWRLNADSVLWGGHKVFMVKPEEPFQPVKEATQL [G202W] |  | 0.0557 | 0.0516 |  | 
13 | MGESLFKGPRDYNPISSSICHLTNESDGHTTSLYGIGFGPFIITNKHLFRRNNGTLVVQSLHGVFKVKDTTTLQQHLVDGRDMIIIRMPKDFPPFPQKLKFREPQREERICLVTTNFQTKSMSSMVSDTSCTFPSGDGIFWKHWIQTKDGQCGSPLVSTRDGFIVGIHSASNFTNTNNYFTSVPKNFMELLTNQEAQQWVSGWRLNADSVLWGGHKVFMVKLEEPFQPVKEATQL [P222L] |  |  | 0.0558 | 0.0572 | 0.071
14 | MGESLFKGPRDYNPISSSICHLTNESDGHTTSLYGIGFGPFIITNKHLFRRNNGTLVVQSLHGVFKVKDTTTLQQHLVDGRDMIIIRMPKDFPPFPQKLKFREPQREERICLVTTNFQTKSMSSMVSDTSCTFPSGDGIFWKHWIQTKDGQCGSPLVSTRDGFIVGIHSASNFTNTNNYFTSVPKNFMELLTNQEAQQWVNGWRLNADSVLWGGHKVFMVKPEEPFQPVKEATQL [S201N] | 0.0608 |  |  | 0.0721 | 0.0625
15 | MGESLFKGPRDYNPISSSICHLTNESDGHTTSLYGIGFGPFIITNKHLFRRNNGTLVVQSLHGVFKVKDTTTLQQHLVDGRDMIIIRMPKDFPPFPQKLKFREPQREERICLVTTNFQTKSMSSMVSDTSCTFPSGDGIFWKHWIQTKDGQCGSPLVSTRDGFIVGIHSASNFTNTNNYFTSVPKNFMELLTNQEAQQWVCGWRLNADSVLWGGHKVFMVKPEEPFQPVKEATQL [S201C] |  |  | 0.0588 | 0.0639 | 
16 | MGESLFKGPRDYNPISSSICHLTNESDGHTTSLYGIGFGPFIITNKHLFRRNNGTLVVQSLHGVFKVKDTTTLQQHLVDGRDMIIIRMPKDFPPFPQKLKFREPQREERICLVTTNFQTKSMSSMVSDTSCTFPSGDGIFWKHWIQTKDGQCGSPLVSTRDGFIVGIHSASNFTNTNNYFTSVPKNFMELLTNQEAQQWVSGWRLNADSVLWGEHKVFMVKPEEPFQPVKEATQL [G214E] | 0.0684 |  |  | 0.0551 | 
